Among the data in PubChem BioAssay (NCI) are TGI and GI50 values, retold here.

Where “and” joins values, the source holds several entries; their conditions need not be identical. Identical values can stand only once.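 The compound was tested at five concentrations on cells cultured in 96-well plates, with a 48-hour exposure period. Abbreviation: GI50, concentration required for 50% inhibition of growth. At the TGI there is no net growth.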 Bounds are passed on as bounds.

This test deals with NCI-H322M lung. Kind of test: NCI tumour cell line growth inhibition, 48 h.
As for `Nc1c(S(=O)(=O)O)cc(S(=O)(=O)O)c2ccc(N=Nc3ccccc3)c(O)c12`, the TGI is more than 100 µM.

Compound `c1ccc2cc(C3NCCc4[nH]cnc43)ccc2c1` (centres undefined) yielded a TGI of more than 100 µM.

Take `CC(=O)OC(C(=O)[O][Ge]([CH3])([CH3])[CH3])c1ccccc1` (centres undefined): the GI50 is more than 100 µM and the TGI was more than 100 µM.

`CN1N=C(c2ccncc2)OC1c1cccc(F)c1` (centres undefined) gave a TGI of more than 100 µM.

Take `COc1cccc(C(=O)NNc2nc(Cl)nc(N3CCN(C(c4ccccc4)c4ccccc4)CC3)n2)c1`: the GI50 is 3.74 µM and the TGI worked out at 17.4 µM.

Regarding `COc1cccc2nc(Nc3cccc(NC(=O)c4ccc(N5CCN(C)CC5)c(C(F)(F)F)c4)c3)ccc12`, the GI50 is 1.65 µM and the TGI amounted to 6.15 µM.

For the compound `Cc1[nH]c(C(=O)Nc2cccc(OC3CCNCC3)c2)c(Cl)c1Cl`, the GI50 is 1.7 µM and the TGI turned out to be 3.3 µM.

In the case of `CCn1c2ccccc2c2ccc(C3C4C(=O)N(c5cccc6ccccc56)C(=O)C4ON3C(C(N)=O)c3ccccc3)cc21` (centres undefined), the TGI was more than 25 µM.

`NS(=O)(=O)c1ccc(N=Nc2c(O)[nH]c3ccc(C(=O)NCCCn4ccnc4)cc23)cc1`: the GI50 is more than 25 µM and the TGI was more than 25 µM.

Consider `CN1C(=O)C(N=Nc2ccc([N+](=O)[O-])cc2)SC1=S` (centres undefined), for which the GI50 is 1.67 µM and 14.7 µM.

On to `Cc1ccc(S(=O)(=O)c2ccc(C)cc2[N+](=O)[O-])c([N+](=O)[O-])c1`, for which the TGI was more than 100 µM.

Turning to `N#Cc1ccc(C2OCC3CC=CCC3CO2)cc1` (centres undefined), the TGI is more than 100 µM.

Take `Cc1c(O)cccc1C(=O)N[C@@H](CSc1ccccc1)[C@H](O)CN1C[C@H]2CCCC[C@H]2C[C@H]1C(=O)NC(C)(C)C`: the GI50 was 3.95 µM and 10.1 µM; the TGI was 12.1 µM and > 73 µM.

Compound `c1ccc2c(c1)nc1ccccn12` came in with a TGI of more than 100 µM.

Take `Nc1c(F)c(F)c2c(c1F)N(CCCCCl)c1ccccc1S2`: the TGI was more than 100 µM.

As to `CCCCC/C=C\C=C\CCCCCCCCC(=O)OC`, the TGI is more than 100 µM.

With `CCN(N=O)C1C2(CCCC2)NC(=O)C12CCCC2` (centres undefined), the TGI is more than 100 µM.

The compound `NC(=O)C1=C(O)[C@@]2(O)C(=O)C3=C(O)c4c(O)cccc4CC3C[C@H]2CC1=O` (some centres undefined) came in with a TGI of 13.1 µM.

For the compound `O=C1CCC(=O)c2ccccc2N1`, the TGI is more than 100 µM.

For `Cc1ccc(C2=NN(c3ccc(S(=O)(=O)NC(=O)NCc4ccccc4)cc3)C(c3ccc(N(C)C)cc3)C2)c(C)c1` (centres undefined), the GI50 is 4.86 µM and the TGI was determined as 32.4 µM.

For the compound `CCCCCCC(=O)OC[n+]1ccc(-c2c(COC(=O)NC(C)C)c(COC(=O)NC(C)C)c3n2CCC3)cc1`, the TGI is more than 100 µM.

Compound `C1CSCCSCCSCCSCCS1` gave a TGI of more than 100 µM.

For `O=C1CCc2cc(Br)ccc2O1`, the TGI was more than 100 µM.

In turn, `C=CC(C)(C)NC(C(=O)N1CCC[C@H]1c1nc(-c2nc(C(=O)OCC=C(C)C)c(C)o2)c(C)o1)C(C)C` (some centres undefined) registered a TGI of more than 100 µM.

`CS(=O)(=O)Nc1cc(-c2ccc3ncc(C#N)c(Nc4ccc(F)c(Cl)c4)c3c2)cnc1Cl`: the GI50 is 0.321 µM and the TGI was 1.58 µM.

Turning to `CCOc1cc(Cl)c(C(C)NC(=O)c2cccc(OC)c2)cc1OCC` (centres undefined), the GI50 is more than 68.6 µM and the TGI was more than 100 µM.

The compound `Cc1c2c(n3c(nc4ccccc43)c1C#N)N(c1ccc(F)cc1)CC2` showed a TGI of more than 100 µM.

`COc1ccccc1/C=C1\CCC(Cc2ccccc2)(CN(C)C)C1=O` (centres undefined): the TGI is more than 67.1 µM.

On to `Cc1cc(O)ccc1C1(c2ccc(O)cc2C)OC(=O)c2ccccc21`, for which the GI50 is 18.5 µM and the TGI worked out at 33.5 µM.

For `COc1cc2c(Nc3ccc(-c4ccc(N)cc4)cc3)ncnc2c(OC)c1OC`, the GI50 is 12.9 µM and the TGI is more than 100 µM.

`Cc1ccc(NC(=O)c2cccc(OP(=O)(Nc3ccc(C)cc3)Nc3ccc(C)cc3)c2)cc1` came in with a TGI of more than 100 µM.

With `Cc1csc2nc(-c3cc([N+](=O)[O-])c(Cl)cc3Cl)c(/C=N/N=C(N)N)n12`, the TGI came out at 30 µM.

For the compound `CC(C)CCNC(=O)c1ccc(CNC(=O)/C=C/c2ccc3ccccc3c2)cc1`, the TGI was more than 100 µM.

Turning to `O=C(Nn1c(-c2ccccc2)nc2ccccc2c1=O)c1cccc([N+](=O)[O-])c1`, the TGI was more than 100 µM.

`COC(=O)c1cc(O)ccc1O` had a TGI of more than 100 µM.

Regarding `CCOC(=O)CCc1c(C)c2c(OC)cc(OC)cc2oc1=O`, the TGI was more than 100 µM.

In turn, `CC(CC(=O)N1C2CC3CCC2(CS1(=O)=O)C3(C)C)[Si](C)(C)C` (centres undefined) returned a TGI of more than 100 µM.

Consider `O=S(=O)(O)c1c(Cl)c(Cl)c(O)c2ncccc12`, for which the TGI was 36.6 µM.

Compound `CCCCCN1C(=O)C(Cc2ccccc2)N=C(c2ccc(O)cc2)c2cc(Cl)ccc21` (centres undefined) had a TGI of 30.4 µM.

With `COc1cc(-c2oc3c(OC)c(O)c(OC)c(O)c3c(=O)c2OC)cc(OC)c1OC`, the TGI was more than 100 µM.

`Cc1cc(C)c(NS(=O)c2ccc(Cl)cc2)c(C)c1` (centres undefined) gave a TGI of more than 100 µM.

`CO[P@@]1(=O)O[C@@H](c2ccccc2)[C@H](O)[C@@]1(O)c1ccccc1`: the TGI was more than 100 µM.

`COc1ccc(C[C@H]2COC(=O)[C@@H]2Cc2ccc(Br)cc2)cc1OC` registered a TGI of more than 100 µM.

Regarding `CC1=C2CC[C@@]3(C)C(=CCC3O)C2(C)CCC1=O` (some centres undefined), the TGI is more than 100 µM.

For the compound `CC(C)N(C(C)C)S(=O)(=O)CC12CCC(C/C1=N\O)C2` (centres undefined), the TGI was more than 100 µM.

Take `CC1(C)CC[C@]23CC[C@]4(C)[C@H](CC[C@@H]5[C@@]6(C)CCCNC(C)(C)[C@@H]6CC[C@]54C)[C@H]2[C@H]1OC3`: the GI50 was 1.64 µM and the TGI is 3.03 µM.

For the compound `Cn1c2ncccc2n2c(=O)cc(O)cc12`, the TGI is more than 100 µM.

As for `N#Cc1c(-c2ccccc2)cn(C(=O)c2ccccc2)c1N`, the TGI is more than 100 µM.

`COc1ccc2nc3ccc(OC)cc3c(S(=O)Cc3ccccc3)c2c1` (centres undefined) showed a TGI of 36.9 µM.

The compound `CN1C(=O)C(=Cc2ccc(Br)cc2)C(=O)N(C)C1=O` gave a TGI of more than 100 µM.

Take `COc1ccc(OC)c(C2=C(c3cn(C)c4ccccc34)C(=O)NC2=O)c1`: the GI50 is more than 25 µM and the TGI is more than 25 µM.

Consider `CC1(C)N=C(N)N=C(N)N1c1ccc(OCC(=O)Nc2ccc(S(=O)(=O)F)cc2Cl)c(Cl)c1`, for which the GI50 was 6.65 µM and the TGI is more than 100 µM.

As for `COP12(OC)NC(=O)OC1(C(F)(F)F)c1ccccc1O2` (centres undefined), the TGI is more than 100 µM.

In the case of `Cc1cn2c(/C=N/N=C(N)N)c(-c3ccc([N+](=O)[O-])cc3)nc2s1`, the TGI turned out to be 3.11 µM.

Regarding `O=P1(Oc2ccc(Cl)cc2Cl)Oc2cc3ccccc3cc2O1`, the TGI was more than 100 µM.

In turn, `C1=NN2C(c3ccccc3)=NOC2C2C(c3ccccc3)=NOC12` (centres undefined) displayed a TGI of more than 100 µM.

The compound `CN(C)c1n2c3ccc([N+](=O)[O-])cc3n3c(N(C)C)[n+]4ccccc4c3c2c2cccc[n+]12` gave a TGI of more than 100 µM.

The compound `COC(C)=NCCC1=CCCCC1` registered a TGI of more than 100 µM.

`CS(=O)(=O)N1CCC(Nc2ncc(C(=O)c3c(F)cccc3F)c(N)n2)CC1`: the GI50 is 15.7 µM and the TGI is more than 25 µM.

The compound `O=C(CCN1CCCCC1)c1csc2ccccc12` registered a TGI of more than 100 µM.

Take `CC(C)c1cnc(-c2cc(Cl)ccc2F)cc1Nc1ccncc1C(=O)NC(CO)CO`: the GI50 is 11 µM and the TGI worked out at 37.1 µM.

`COc1ccc(OC(=O)N2C/C(=C\c3ccccc3)C(=O)/C(=C/c3ccccc3)C2)cc1`: the TGI was more than 100 µM.

Compound `COc1cccc(CCn2c(N)c(-c3cc(Cl)cc(Cl)c3)c3ccc([N+](=O)[O-])cc3c2=O)c1` came in with a TGI of more than 60.4 µM.
